Assays:
[1] = system: IL-2/ CD3 and CD28 antibody stimulated PBMCs; details: for production of IL-17A / production of IL-17F: stimulated PBMC
[2] = Safety pharmacology studies, ECG and blood pressure in 7- and 28-day dog toxicity studies; details: 7- and 28-day toxicity studies in dogs

Row | Structure (SMILES) | production of IL-17A [1] | production of IL-17F [1] | levels of multiple cytokines ([1]; 48 hours of incubation, multiplex assay kit) | adverse effects on the central nervous, cardiovascular, and respiratory systems [2]
1 | COc1ccc(C2c3[nH]c4ccc(Cl)cc4c3CCN2C(=O)Oc2ccc(Cl)cc2)cc1 (centres unmarked) [PTC-371] | did not | did not | – | –
2 | COc1ccc([C@H]2c3[nH]c4ccc(Cl)cc4c3CCN2C(=O)Oc2ccc(Cl)cc2)cc1 [PTC299, 4-chlorophenyl (S)-6-chloro-1-(4-methoxyphenyl)-1,3,4,9-tetrahydro-2H-pyrido[3,4-b]indole-2-carboxylate] | inhibited | inhibited | decreased | unlikely to cause serious adverse effects
3 | Cc1c(-c2ccc(-c3ccccc3F)cc2)nc2ccc(F)cc2c1C(=O)O [brequinar] | inhibited | inhibited | – | –

Source: patent publication US20230172915A1, “DHODH INHIBITOR FOR THE TREATMENT OF COVID-19” (priority 2020, published 2023)
